Among all 310,000 compounds or so, about 2,200 (0.71%) showed an effect of 50% or more. The effect is printed as a negative number. Some of the results follow.
target: human ether-à-go-go-related gene (hERG) potassium channel (human, UniProt Q12809); assay: primary screen, population patch clamp on CHO cells stably expressing hERG
Sequence (Q12809 whole entry, looked up): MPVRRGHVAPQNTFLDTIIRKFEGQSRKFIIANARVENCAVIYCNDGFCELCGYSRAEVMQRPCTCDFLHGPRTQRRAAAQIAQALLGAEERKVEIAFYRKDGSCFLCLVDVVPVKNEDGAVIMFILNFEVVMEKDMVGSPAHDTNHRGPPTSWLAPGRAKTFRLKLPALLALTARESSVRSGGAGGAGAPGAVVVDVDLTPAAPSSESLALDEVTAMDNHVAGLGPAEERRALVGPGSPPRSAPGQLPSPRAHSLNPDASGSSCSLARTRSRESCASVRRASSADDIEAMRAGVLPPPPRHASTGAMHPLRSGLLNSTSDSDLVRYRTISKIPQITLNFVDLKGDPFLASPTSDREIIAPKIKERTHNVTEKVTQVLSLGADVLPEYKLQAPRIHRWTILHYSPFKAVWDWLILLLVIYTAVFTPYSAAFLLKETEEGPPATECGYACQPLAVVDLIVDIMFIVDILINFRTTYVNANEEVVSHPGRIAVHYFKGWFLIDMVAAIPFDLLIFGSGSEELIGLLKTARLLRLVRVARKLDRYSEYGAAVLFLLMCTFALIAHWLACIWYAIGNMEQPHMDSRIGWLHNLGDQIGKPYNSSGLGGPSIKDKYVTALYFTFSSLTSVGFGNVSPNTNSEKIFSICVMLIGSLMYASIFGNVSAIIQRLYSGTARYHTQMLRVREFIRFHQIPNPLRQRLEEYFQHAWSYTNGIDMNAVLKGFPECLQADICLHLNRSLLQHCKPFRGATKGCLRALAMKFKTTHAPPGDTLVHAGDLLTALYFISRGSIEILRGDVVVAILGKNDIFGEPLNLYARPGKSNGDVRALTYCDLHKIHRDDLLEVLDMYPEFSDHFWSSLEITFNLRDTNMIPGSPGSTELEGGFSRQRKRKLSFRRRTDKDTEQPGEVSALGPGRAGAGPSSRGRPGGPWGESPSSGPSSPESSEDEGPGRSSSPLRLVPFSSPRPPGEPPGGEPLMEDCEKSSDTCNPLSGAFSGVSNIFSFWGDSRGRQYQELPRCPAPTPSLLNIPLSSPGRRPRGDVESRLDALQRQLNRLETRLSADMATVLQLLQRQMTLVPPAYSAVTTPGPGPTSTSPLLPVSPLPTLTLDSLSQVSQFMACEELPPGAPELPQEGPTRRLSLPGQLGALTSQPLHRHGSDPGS

In order of falling “hERG current change (%, negative = inhibition) at 1uM” value:
1. Cc1ccc(-n2nnnc2CNC(=O)c2ccc(Br)o2)cc1C  25.7%
2. CN1CCN(Cc2ccc3ccccc3c2)CC1  19.5%
3. Cc1ccc(C(=O)NC(=S)N2CC(C)OC(C)C2)cc1[N+](=O)[O-] (centres unmarked)  16.5%
4. N#CC1(c2ccccc2)CCN(C2CC(=O)N(c3ccc4c(c3)OCO4)C2=O)CC1 (centres unmarked)  15.3%
5. Cc1ccc(NC(=O)NCC(c2ccccc2)N(C)C)cc1 (centres unmarked)  15%
6. CN1CCN(CCCNC(=O)c2ccc3c(=O)n(CCc4ccccc4)c(=O)[nH]c3c2)CC1  14.6%
7. COC(=O)c1ccccc1NC(=O)c1ccc(COc2ccc(C)c(C)c2)o1  14.1%
8. OCCNNC(=S)NC1CC2C=CC1C2 (centres unmarked)  14%
9. CS(=O)(=O)n1nc(-c2ccco2)nc1N  13.7%
10. O=C(O)c1cccc(S(=O)(=O)N2CCCC(c3nc4c(nnn4Cc4ccc(F)cc4)c(=O)[nH]3)C2)c1 (centres unmarked)  13.7%
11. Cc1ccccc1CN(C)C(C)C(=O)NCc1ccccc1 (centres unmarked)  13.1%
12. O=C(NCC1CCCCC1)C1CCN(C(=O)NC2CCCCC2)CC1  12.8%
13. Cc1cccc(CN2CCSCC2)c1  12.7%
14. O=c1[nH]c(=O)n(-c2cccc(Cl)c2)c(O)c1C=NCCN1CCCCC1  12.6%
15. Cc1cc(C(=O)O)cc(S(=O)(=O)NNC(=O)c2cccs2)c1C  11.4%
16. O=C(O)c1ccc(N/N=C/c2ccc(-c3cccc(Cl)c3)o2)cc1  11.2%
17. CCC1CCCCN1Cc1nc2c(c(=O)n(C)c(=O)n2C)n1Cc1cccc2ccccc12 (centres unmarked)  11%
18. Cc1c(CCC(=O)NCCC(=O)O)c(=O)oc2cc3occ(-c4ccccc4)c3cc12  10.9%
19. Cc1ccc(C(=O)OCC(=O)Nc2ccc3[nH]c(=O)[nH]c3c2)o1  10.8%
20. COCc1c(Br)c(C)nc(OCC(=O)O)c1C#N  10.6%
21. COc1ccc(CC(=O)OCC(=O)NC(=O)Nc2ccccc2F)cc1  9.99%
22. COCCn1c(SCC(=O)Nc2cccc(C)c2)nnc1C(C)C  9.74%
23. COc1ccc(-c2c(-c3cc(OC)cc(OC)c3)n(C)c3ccc(-c4ccc5[nH]ccc5c4)cc23)cc1  9.32%
24. O=C(COc1c(Cl)cc(Cl)cc1Cl)c1ccc(Cl)cc1  9.26%
25. Cc1nc2nc(SCc3ccc([N+](=O)[O-])cc3)[nH]c2cc1Br  9.16%
26. Cc1cc(C(=O)Nc2ccc3c(c2)CCC3)ccc1[N+](=O)[O-]  8.85%
27. CCOC(=O)c1ccc(N/C=C/C(=O)c2ccc(OC)c(OC)c2)cc1  8.27%
28. COc1cccc(OCc2cc(C(=O)N3CCN(C)C(c4ccccc4)C3)no2)c1 (centres unmarked)  8.08%
29. O=C1COc2ccc(C(=O)COC(=O)CNC(=O)c3ccccc3)cc2N1  7.37%
30. O=c1c2ccccc2ncn1-c1ccc([N+](=O)[O-])cc1[N+](=O)[O-]  6.59%
31. CCCNC(=O)C(Cc1cccc(Cl)c1)NC(=O)c1ccc(C#N)cc1 (centres unmarked)  3.48%
32. CCOCCCNC(=O)C(c1ccccc1)N(Cc1cccs1)C(=O)CNC(C)=O (centres unmarked)  3.43%
33. C#CCSc1nnc(C)c(C)n1  3.2%
34. CN1CCN(c2ccc(NC(=O)c3cc(S(N)(=O)=O)ccc3N3CCOCC3)cc2)CC1  2.65%
35. O=C(CCc1ccccn1)N1CCCC(Nc2ccc(F)cc2)C1 (centres unmarked)  1.84%
36. Nc1cc(C(=O)c2cccs2)ccc1Cl  1.79%
37. COc1cc2c(cc1NC(=O)C1CCCO1)oc1ccccc12 (centres unmarked)  1.54%
38. O=C(/C=C/c1cccc([N+](=O)[O-])c1)OCC(=O)c1ccccc1  0.958%
39. O=C(NCCCCc1ccccc1)C1CC(c2ccc(C(F)(F)F)cc2)=NO1 (centres unmarked)  0.396%
40. Cc1ccc2c(c1)N(CC(=O)NCC1CCCO1)C(=O)C(C)O2 (centres unmarked)  -0.627%
41. COc1ccc(C(=O)NCC(=O)N2CC=C(c3ccccc3)CC2)cc1OC  -4.07%
42. O=C(CCCCN1CCCCC1)c1ccc2c(c1)Cc1ccccc1-2  -5.02%
43. COc1ccccc1N1CCN(C(=O)CNC(=O)Cn2cnc3sc(C)c(C)c3c2=O)CC1  -9.87%
44. O=C1CN(CC(=O)Nc2ccc(SC(F)F)cc2)CCN1  -15.4%
